# Where two headings read alike, the source gives them in different places.
# Experiments:
# NCI-H322M [1] = conditions: NCI-60 database, sulforhodamine B, read-out: Cytotoxic IC50; cited from earlier work
# NCI-H522 = conditions: NCI-H522, NCI-60 database, sulforhodamine B; read-out: Cytotoxic IC50; cited from earlier work
# NCI-H322M [2] = assay: In vitro cytotoxicity (PrestoBlue); format: cell-based; conditions: Homo sapiens, 72 h, read-out: Cytotoxic IC50
# Text: Experiments were repeated at least 3 times.
structure (smiles),measurement,setting,value
"COc1cccc2c1C(=O)c1c(O)c3c(c(O)c1C2=O)C[C@@](O)(C(=O)CO)C[C@@H]3O[C@H]1C[C@H](N)[C@H](O)[C@H](C)O1 [DOX, doxorubicin]",IC50,NCI-H322M [1],453 nM
same,IC50,NCI-H522,54.7 nM
"COc1cccc2c1C(=O)c1c(O)c3c(c(O)c1C2=O)C[C@@](O)(C(C)=O)C[C@@H]3O[C@H]1C[C@H](N)[C@H](O)[C@H](C)O1 [Dau, daunorubicin]",IC50,NCI-H322M [1],288 nM
same,IC50,NCI-H522,36.1 nM
"COc1cccc2c1C(=O)c1c(O)c3c(c(O)c1C2=O)C[C@@](O)(C(C)=O)C[C@@H]3O[C@H]1C[C@H]2[C@H](OC3CCCN32)[C@H](C)O1 (some centres unmarked) [PyDau, 2-deamino-2-pyrrolino-daunorubicin]",IC50,NCI-H322M [2],7.85 nM

# Source: patent US20250032525A1 (priority 2021, published 2025)
